This note sets out measurements from the supplement of paper PMC4967469.

Compound in the assay: Cn1c(=O)n(-c2ccc(C(C)(C)C#N)cc2)c2c3cc(-c4cnc5ccccc5c4)ccc3ncc21 [NVP-BEZ235]
The assay is described as follows: Viability of human cancer cell lines after 72 h of drug (GDSC screen). Here is the method:
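Human cancer cell lines in 384-well plates, medium with 10% serum, drug for 72 h over a 256-fold dose range (nine 2-fold or five 4-fold steps up to the top dose). Adherent lines were fixed and stained with the nucleic acid dye Syto60, suspension lines read with resazurin; signal relative to control wells, capped at 0 and 100%. One two-parameter sigmoid per drug and line, fitted in a mixed model over all curves with the slope shared within a line.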

IC50 is the fitted dose that halves viability relative to control wells, and lower means more sensitive; a limit (>, <) means that the fit lies beyond the doses tested. For AUC the same curve is integrated over the 256-fold range of doses and scaled to a fraction; it is 1 without any effect and falls as sensitivity rises.

As to “DK-MG (glioma, adherent, top dose 0.25 µM)”, the AUC was 0.783 and the IC50 is 0.165 µM.

For “DMS-79 (small cell lung carcinoma, suspension, top dose 0.25 µM)”, the AUC was 0.895 and the IC50 was over 0.25 µM.

As for “DMS-114 (small cell lung carcinoma, adherent, top dose 0.25 µM)”, the AUC worked out at 0.739 and the IC50 worked out at 0.0845 µM.

Regarding “DMS-273 (small cell lung carcinoma, adherent, top dose 0.25 µM)”, the AUC worked out at 0.709 and the IC50 stood at 0.0634 µM.

As to “DND-41 (T-cell leukaemia, suspension, top dose 0.25 µM)”, the AUC was found to be 0.822 and the IC50 is 0.124 µM.

Consider “DOHH-2 (B-cell lymphoma, suspension, top dose 0.25 µM)”, for which the AUC is 0.664 and the IC50 was determined as 0.044 µM.

For the cell line “DOK (head and neck, adherent, top dose 0.25 µM)”, the AUC turned out to be 0.534 and the IC50 is 0.0202 µM.

Consider “DOV13 (ovary, adherent, top dose 0.25 µM)”, for which the AUC is 0.551 and the IC50 was found to be 0.022 µM.

For the cell line “DSH1 (bladder, adherent, top dose 0.25 µM)”, the AUC was 0.875 and the IC50 was determined as 0.227 µM.

For the cell line “DU-145 (prostate, adherent, top dose 0.25 µM)”, the AUC was determined as 0.977 and the IC50 was over 0.25 µM.

Take “DU-4475 (breast, suspension, top dose 0.25 µM)”: the AUC was found to be 0.692 and the IC50 worked out at 0.0479 µM.

In the case of “Daudi (Burkitt lymphoma, suspension, top dose 0.25 µM)”, the AUC turned out to be 0.857 and the IC50 amounted to 0.163 µM.

For “Detroit562 (head and neck, adherent, top dose 0.25 µM)”, the AUC turned out to be 0.765 and the IC50 was 0.0884 µM.

As to “DoTc2-4510 (cervix, adherent, top dose 0.25 µM)”, the AUC was 0.924 and the IC50 was over 0.25 µM.

In the case of “EB2 (Burkitt lymphoma, suspension, top dose 0.25 µM)”, the AUC was found to be 0.901 and the IC50 is over 0.25 µM.

For “EB-3 (Burkitt lymphoma, suspension, top dose 0.25 µM)”, the AUC came out at 0.776 and the IC50 was found to be 0.117 µM.

In the case of “EBC-1 (lung squamous cell carcinoma, adherent, top dose 0.25 µM)”, the AUC was found to be 0.633 and the IC50 is 0.0382 µM.

For “EC-GI-10 (oesophagus, adherent, top dose 0.25 µM)”, the AUC stood at 0.492 and the IC50 is 0.0149 µM.

Consider “ECC10 (stomach, suspension, top dose 0.25 µM)”, for which the AUC was found to be 0.679 and the IC50 turned out to be 0.0508 µM.

Consider “EFM-192A (breast, adherent, top dose 0.25 µM)”, for which the AUC turned out to be 0.71 and the IC50 was 0.0658 µM.

“EFO-21 (ovary, adherent, top dose 0.25 µM)”: the AUC came to 0.857 and the IC50 was over 0.25 µM.

As to “EFO-27 (ovary, adherent, top dose 0.25 µM)”, the AUC worked out at 0.565 and the IC50 was determined as 0.0246 µM.

Consider “EGI-1 (biliary tract, adherent, top dose 0.25 µM)”, for which the AUC was determined as 0.512 and the IC50 amounted to 0.017 µM.

With “EHEB (lymphoid neoplasm, suspension, top dose 0.25 µM)”, the AUC was determined as 0.698 and the IC50 was 0.0733 µM.

With “EJM (lymphoid neoplasm, semi-adherent, top dose 0.25 µM)”, the AUC turned out to be 0.718 and the IC50 was found to be 0.0572 µM.

For the cell line “EKVX (lung adenocarcinoma, adherent, top dose 0.25 µM)”, the AUC amounted to 0.695 and the IC50 was 0.106 µM.

“EM-2 (chronic myeloid leukaemia, suspension, top dose 0.25 µM)”: the AUC came out at 0.713 and the concentration for half-maximal inhibition (IC50) worked out at 0.0685 µM.

As to “EMC-BAC-1 (lung adenocarcinoma, adherent, top dose 0.25 µM)”, the AUC came out at 0.772 and the IC50 is 0.11 µM.

With “EMC-BAC-2 (lung adenocarcinoma, adherent, top dose 0.25 µM)”, the AUC was 0.392 and the IC50 was 0.00745 µM.

In the case of “EN (endometrium, adherent, top dose 0.25 µM)”, the AUC was determined as 0.861 and the IC50 was over 0.25 µM.

For “ES1 (Ewing sarcoma, adherent, top dose 0.25 µM)”, the AUC was 0.658 and the IC50 was determined as 0.0427 µM.

In the case of “ES3 (Ewing sarcoma, adherent, top dose 0.25 µM)”, the AUC was determined as 0.577 and the IC50 was determined as 0.0257 µM.

Take “ES4 (Ewing sarcoma, adherent, top dose 0.25 µM)”: the AUC is 0.578 and the IC50 was 0.0263 µM.

As for “ES5 (Ewing sarcoma, adherent, top dose 0.25 µM)”, the AUC was 0.507 and the IC50 stood at 0.0164 µM.

With “ES6 (Ewing sarcoma, adherent, top dose 0.25 µM)”, the AUC is 0.719 and the IC50 is 0.0766 µM.

In the case of “ES7 (Ewing sarcoma, adherent, top dose 0.25 µM)”, the AUC is 0.539 and the IC50 was 0.02 µM.

Turning to “ES8 (Ewing sarcoma, adherent, top dose 0.25 µM)”, the AUC was 0.567 and the IC50 amounted to 0.0234 µM.

Regarding “ES-2 (ovary, adherent, top dose 0.25 µM)”, the AUC worked out at 0.618 and the IC50 turned out to be 0.0316 µM.

In the case of “ESO26 (oesophagus, adherent, top dose 0.25 µM)”, the AUC amounted to 0.859 and the IC50 is 0.188 µM.

For “ESO51 (oesophagus, semi-adherent, top dose 0.25 µM)”, the AUC came to 0.69 and the IC50 was determined as 0.0668 µM.

“ESS-1 (endometrium, adherent, top dose 0.25 µM)”: the AUC worked out at 0.799 and the IC50 is 0.106 µM.

“ETK-1 (biliary tract, adherent, top dose 0.25 µM)”: the AUC was 0.455 and the IC50 is 0.0116 µM.

For the cell line “EVSA-T (breast, adherent, top dose 0.25 µM)”, the AUC came to 0.536 and the IC50 came out at 0.0193 µM.

Regarding “EW-1 (Ewing sarcoma, semi-adherent, top dose 0.25 µM)”, the AUC turned out to be 0.776 and the IC50 is 0.0915 µM.

As to “EW-3 (Ewing sarcoma, adherent, top dose 0.25 µM)”, the AUC came out at 0.804 and the IC50 is 0.147 µM.

In the case of “EW-7 (Ewing sarcoma, semi-adherent, top dose 0.25 µM)”, the AUC came to 0.612 and the IC50 came out at 0.0305 µM.

As for “EW-11 (Ewing sarcoma, adherent, top dose 0.25 µM)”, the AUC worked out at 0.749 and the IC50 was 0.102 µM.

On to “EW-13 (Ewing sarcoma, suspension, top dose 0.25 µM)”, for which the AUC is 0.685 and the IC50 was 0.0549 µM.

Take “EW-16 (Ewing sarcoma, adherent, top dose 0.25 µM)”: the AUC worked out at 0.514 and the IC50 came out at 0.0171 µM.

As for “EW-18 (Ewing sarcoma, suspension, top dose 0.25 µM)”, the AUC came out at 0.584 and the IC50 came out at 0.027 µM.

In the case of “EW-22 (Ewing sarcoma, adherent, top dose 0.25 µM)”, the AUC came out at 0.673.

With “EW-24 (Ewing sarcoma, semi-adherent, top dose 0.25 µM)”, the AUC is 0.878 and the IC50 was 0.201 µM.

In the case of “EoL-1-cell (haematopoietic neoplasm, suspension, top dose 0.25 µM)”, the AUC was determined as 0.669 and the IC50 is 0.0432 µM.

Regarding “FADU (head and neck, adherent, top dose 0.25 µM)”, the AUC amounted to 0.918 and the IC50 was over 0.25 µM.

Take “FLO-1 (oesophagus, adherent, top dose 0.25 µM)”: the AUC came to 0.657 and the IC50 was 0.0518 µM.

“FTC-133 (thyroid, adherent, top dose 0.25 µM)”: the AUC was found to be 0.572.

Regarding “FU97 (stomach, adherent, top dose 0.25 µM)”, the AUC stood at 0.657 and the IC50 was found to be 0.0434 µM.

Consider “FU-OV-1 (ovary, adherent, top dose 0.25 µM)”, for which the AUC was found to be 0.856 and the IC50 is over 0.25 µM.

As for “Farage (B-cell lymphoma, suspension, top dose 0.25 µM)”, the AUC stood at 0.519 and the half-maximal inhibitory concentration (IC50) is 0.0174 µM.

Take “G-292 Clone A141B1 (osteosarcoma, adherent, top dose 0.25 µM)”: the AUC turned out to be 0.77 and the IC50 is 0.159 µM.

With “G-361 (melanoma, adherent, top dose 0.25 µM)”, the AUC worked out at 0.747 and the IC50 stood at 0.0769 µM.

Consider “G-401 (kidney, adherent, top dose 0.25 µM)”, for which the AUC stood at 0.663 and the IC50 was determined as 0.0466 µM.

“G-402 (soft tissue, adherent, top dose 0.25 µM)”: the AUC came to 0.577 and the IC50 is 0.0272 µM.

For “GA-10 (Burkitt lymphoma, suspension, top dose 0.25 µM)”, the AUC stood at 0.499 and the IC50 worked out at 0.0155 µM.

Take “GAK (melanoma, adherent, top dose 0.25 µM)”: the AUC was found to be 0.776 and the IC50 is 0.0944 µM.

For “GAMG (glioma, adherent, top dose 0.25 µM)”, the AUC amounted to 0.536 and the IC50 is 0.0197 µM.

As to “GB-1 (glioma, adherent, top dose 0.25 µM)”, the AUC came out at 0.656 and the IC50 was determined as 0.046 µM.
